The source of these data is PubChem BioAssay AID1159614 (National Center for Advancing Translational Sciences (NCATS), 2016).

The campaign covered roughly 45,000 compounds. About 65 (0.1%) were called active. The call rests on the fitted dose curve; in most records, active means well fitted activation curve with a large enough effect; inconclusive means small, poorly fitted or top-dose-only effect; inactive means no such curve, though single readings can be large or run the other way. This is one part of the list.

Chain of UniProt P54803 (P54803 whole entry, looked up): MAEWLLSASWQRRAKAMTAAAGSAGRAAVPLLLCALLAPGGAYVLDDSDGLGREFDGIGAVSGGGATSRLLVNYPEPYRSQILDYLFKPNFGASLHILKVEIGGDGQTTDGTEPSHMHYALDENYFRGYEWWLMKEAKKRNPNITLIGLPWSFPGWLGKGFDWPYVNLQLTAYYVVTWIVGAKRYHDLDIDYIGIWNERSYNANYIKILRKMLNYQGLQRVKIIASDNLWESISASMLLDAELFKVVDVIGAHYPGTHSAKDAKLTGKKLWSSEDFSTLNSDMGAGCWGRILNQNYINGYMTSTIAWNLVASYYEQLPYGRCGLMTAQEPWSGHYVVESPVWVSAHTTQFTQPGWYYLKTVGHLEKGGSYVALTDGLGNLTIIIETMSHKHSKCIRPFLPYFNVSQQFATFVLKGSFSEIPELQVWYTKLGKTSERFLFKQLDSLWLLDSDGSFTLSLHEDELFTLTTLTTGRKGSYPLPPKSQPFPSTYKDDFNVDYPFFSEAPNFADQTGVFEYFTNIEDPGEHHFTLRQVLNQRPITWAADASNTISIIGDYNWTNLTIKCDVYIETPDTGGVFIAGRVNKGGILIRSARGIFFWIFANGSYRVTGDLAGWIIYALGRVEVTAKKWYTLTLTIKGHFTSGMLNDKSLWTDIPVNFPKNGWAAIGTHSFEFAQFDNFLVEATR

The assay has as its target Galactocerebrosidase (Homo sapiens) (UniProt P54803). As to the kind of experiment: A Novel Cell-Based Assay to Identify Small Molecules for B -Galactocerebrosidase. Further: 0% is about no effect; nearly all actives have a fitted effect of over 65% in size. The note with it: 145M-Twi-hGALC-G270D cells (Twitcher mouse brain line with human GALC G270D), HMU-beta-Gal fluorescence, 48 h; series mostly up to 57.5 µM; activation: at the top concentration. In a few lines:
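Mutant human GALC (G270D), stably expressed in a Twitcher mouse brain cell line lacking endogenous GALC, is measured in live-treated cells via 6-hexadecanoylamino-4-methylumbelliferyl-β-galactoside hydrolysis (0.1 mM final, pH 5.2) with fluorescent detection.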
As for `CSc1nc(=O)c2c(n1C)NC(=O)CC2c1cc(F)cc(F)c1` (stereo unspecified), the “activation” value is inactive: -11.3%.

Regarding `Cc1ccc2nc(Cl)c3cc(C(=O)NCCCN(C)Cc4ccccc4)sc3c2c1`, the “activation” value is inactive: -8.25%. With `CC(=O)c1cccc(NC(=O)Cn2nc(C(F)(F)F)c3c2CCC3)c1`, the “activation” value was inactive: -5.93%. As for `NC(=O)c1nn2c(C(F)(F)F)cc(-c3ccc(Br)cc3)nc2c1Cl`, the figure is inactive: -11.4%. As for `COc1ccc(C2C(C(=O)Nc3ccc(C)cc3C)=C(C)Nc3nc(SCc4cccc(C)c4)nn32)c(OC)c1` (stereo unspecified), the figure is inactive: -11.2%. As for `CC(C)(C)CC(C)(C)c1ccc(OCC(=O)Nc2ccc(S(=O)(=O)Nc3ncccn3)cc2)cc1`, the figure is inactive: -14.4%; as for `Cc1ccc(C)c(N(C)C(=O)Cc2c(C(=O)O)[nH]c3ccc(Cl)cc23)c1`, inactive: -3.09%; as for `CC1=C(C(=O)Nc2ccc(C)cc2C)C(c2ccc(Br)cc2)n2ncc(C(=O)Nc3cccc(C)c3)c2N1` (stereo unspecified), inactive: -3.93%. As for `COc1ccccc1CNC(=O)CSc1nc(=O)[nH]c2c1CCC2`, the “activation” value is inactive: -1.63%.

On to `CN(C)c1ccc(Nc2nc3ccccc3n3nnnc23)cc1`, for which the “activation” value was inactive: -20.4%.

On to `COc1ccccc1-c1nn2c(=O)cc(CN3CCN(C(=O)/C=C/c4ccccc4)CC3)nc2s1`, for which the “activation” value is inactive: -6.15%.

Regarding `COc1cccc(CNC(=O)CN2C(=O)N(c3cccc(Cl)c3)S(=O)(=O)c3ccccc32)c1OC`, the “activation” value was inactive: -11.3%.

`CCN(CC)c1ccc(-n2nc3cc(C)c(NC(=O)c4ccccc4C)cc3n2)c(C)c1`: the “activation” value is inactive: -19.2%.

Turning to `CCOc1ccc(NC(=O)Cn2c(=O)n(CCCCC(=O)NCc3ccc4c(c3)OCO4)c(=O)c3ccccc32)cc1`, the “activation” value is inactive: -10%. The figure for `CCCCCn1c(CNC(=O)c2ccccc2)nc2ccccc21` is inactive: -16.8%; for `CCc1ccc(S(=O)(=O)NCc2nc3cccnc3n2Cc2cccc(OC)c2)cc1` it is inactive: -8.13%. As to `Cc1c(Cl)cccc1Nc1nn2c(=O)c3ccc(C(=O)NCCC4=CCCCC4)cc3nc2s1`, the “activation” value is inactive: -1.33%. The figure for `Cc1cc(C)c(S(=O)(=O)N2CCN(Cc3ccc4c(c3)OCO4)CC2)cc1C` is inactive: -20.8%; for `CCOC(=O)C1=C[C@]2(CC)CCCN3CCc4c(n1c1ccccc41)[C@@H]32` it is inactive: -11.8%. As for `COc1ccc(S(=O)(=O)c2nnn(-c3ccc(C(C)C)cc3)c2C)cc1`, the “activation” value was inactive: -14.4%. In the case of `Cc1ccccc1Cn1c(=O)n(CC2CCC(C(=O)N3CCOCC3)CC2)c(=O)c2sccc21` (stereo unspecified), the “activation” value is inactive: -9.81%. The figure for `CCOc1ccccc1NS(=O)(=O)c1ccc(N2CCCCS2(=O)=O)cc1` is inactive: -3.81%; for `O=C(NCCc1csc(-c2ccc(C(F)(F)F)cc2)n1)C(=O)Nc1ccc(F)c(Cl)c1` it is inactive: -3.79%; for `CCOC(=O)c1c(N)n(-c2ccc(CC)cc2)c2nc3ccccc3nc12` it is inactive: -4.09%. As for `CC(=O)Nc1ccc(C)cc1-c1nc2ccccc2n(CC(=O)c2ccc(C)c(C)c2)c1=O`, the figure is inactive: -14.6%; as for `CN1CCN(c2nc3c(S(=O)(=O)c4ccc(Cl)cc4)nnn3c3ccsc23)CC1`, inactive: -14.9%.
